The list shows a part of the results.
T1: UNK ZnF1-3 (human, UniProt Q9C0B0 31-174)
T1 sequence: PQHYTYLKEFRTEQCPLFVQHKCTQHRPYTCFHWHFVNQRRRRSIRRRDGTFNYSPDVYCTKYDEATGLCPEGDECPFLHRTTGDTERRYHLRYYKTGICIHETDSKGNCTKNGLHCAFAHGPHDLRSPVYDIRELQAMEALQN

B1: 59155668_59155788_2246_3pUTR_ENSMUSG00000055254_ENSMUST00000079828|mouse|control|control (ssRNA)
RNA: GGGAGUUCUACAGUCCGACGAUCAAAGACCAUGAUGAGUGGGUCGCCCUCCACACAGACACCGUAGAACUUGACAAUGUGCUCGUGCUGGAGGUUGGUCAGCAGCUCAGCUUCCCGAUGAAAGUCCUUGCGUGCAUUGUCGCUCAACAGAGGAUUGAGCAUCA
B2: chr9:74984206:74984207:+_ENSMUSG00000034593_ENSMUST00000123128|mus_mus|FALSE|FALSE (ssRNA)
RNA: GGGAGUUCUACAGUCCGACGAUCACCGAUGAUUCUGUACCUCUUGUCAAAACCAAUUUCAAUAUAUUUUCCAAACCGGCUGCUAUUAUCAUUCCUGGUUGUUUUGGCAUUUCCAAUUGACUCCAUGAUGGGGUUGGAGGCCAACAACAGAGGAUUGAGCAUCA
B3: chr9:113828744:113828745:+_ENSMUSG00000033392_ENSMUST00000111838|mus_mus|FALSE|FALSE (ssRNA)
RNA: GGGAGUUCUACAGUCCGACGAUCAAGUAAUGUUAUGUACAGUUUUAUUGCCAGUAUAUGCACAACAGUAAGCAUAGAGCUAUAAAUACACAAUGUCAUUAACAGUAGAAAACAAAACUGUUACAGUAGGGAGAGGGUGUGGAGCAACAGAGGAUUGAGCAUCA
B4: chrX:69798090:69798091:-_ENSMUSG00000031343_ENSMUST00000055966|mus_mus|mus_mus_mus_hu_False|28_38 (ssRNA)
RNA: GGGAGUUCUACAGUCCGACGAUCAAGUCCCCGGGUUCUUGUCGUCUUGAUUCCCCUUGACCAGUGGUUCCAGGGAGAAUAUUAAUCAGGAAAAGAAGUACAACUCUGGUCACAUAACAGUGACUUGUUUGUGUGAUUAUCAUCCAACAGAGGAUUGAGCAUCA
B5: chr11:2905015:2905016:-_ENSG00000129757_ENST00000380725|hu_hu|motif|central (ssRNA)
RNA: GGGAGUUCUACAGUCCGACGAUCUUCAAAAUUUAAAAACAAAACCGAACGCUGCUCUGCGGCAGCCGCCGCCGGUUGCUGCGGCAUGAACGGUCCCAGCCGAGGCCCAGCGCCCUUCCAACGUCCGCUGCCCCGGCAGGUUCCCAACAGAGGAUUGAGCAUCA
B6: chr14:15598107:15598108:+_ENSMUSG00000021733_ENSMUST00000057015|perfect_dup|FALSE|FALSE (ssRNA)
RNA: GGGAGUUCUACAGUCCGACGAUCUUGCCCAGCAAACAAUGAAUAGGCAAUCCCAGUUAAUGAUGCUCCAAAAAGAGACUCUAUUGCACUUAUUCUGCCUUCUGUAGCUUCUCCAAGCAGCCCUCCAAAAGUGAUUACAGGAGACAACAGAGGAUUGAGCAUCA
B7: chr20:37186997:37186998:+_ENSG00000170471_ENST00000397040|hu_hu|motif|central (ssRNA)
RNA: GGGAGUUCUACAGUCCGACGAUCAUCAAAAAAUCCAGGUAUCGUGGAAUCAAGUGCAAUAAGGUGAGGAGGUAGACGACGGUUUGCAGGUUCCUUCAGUGCUUCUAAGGACAAAAAUCCAAAGUGUGAGAGAAAAAGGCGGGCCAACAGAGGAUUGAGCAUCA
B8: chr9:111175947:111175948:+_ENSMUSG00000046785_ENSMUST00000060711|mus_mus|motif|central (ssRNA)
RNA: GGGAGUUCUACAGUCCGACGAUCGGCCUGAAGUUUUGUUAGCUCCACUCUUACAGAAAUAGGCGCAUAUUCCGGUUUAAAGCGGAAUGGAUUUGAGAAAAGUUCUAAGUCCUUUUUAAUGAACCUGAGGUCCUUAAAAUGUCUCAACAGAGGAUUGAGCAUCA
B9: chr17:6048899:6048900:-_ENSMUSG00000015659_ENSMUST00000097432|mus_hu|FALSE|FALSE (ssRNA)
RNA: GGGAGUUCUACAGUCCGACGAUCUUUGACUUCCAACGAGGGGAAGAGAAGAUAGCGAAUAUUAACAGAGUAUUCAGCCAAACGUGAUCCAUGAUGAGGGACACUAUAAAAAAUUAUUCCUCUGGUAUUGUUGAUAACAGUACUCAACAGAGGAUUGAGCAUCA
B10: chr7:141450121:141450122:+_ENSG00000106028_ENST00000265304|hu_mus|hu_hu_hu_mus_True|8_18 (ssRNA)
RNA: GGGAGUUCUACAGUCCGACGAUCUCAUCCGUUCUAUGCCUUUUCUUUUGUCUGGUCACUCAGAAAUAUAAUGUUAUCAGCUAUGAUUGUUGUUGCUUGCCGCCUCACAUUGUUUUUAUCCAUGUAUUCACCAUAGUCCACUUUCAACAGAGGAUUGAGCAUCA
B11: 87157311_87160475_317_CDS_ENSMUSG00000021252_ENSMUST00000021676|mouse|control|control (ssRNA)
RNA: GGGAGUUCUACAGUCCGACGAUCUCCAAAUACAAACAACUCUGAGAGGAAGUGUCCCAGGGCGAGGAGGAAUGUCCACAGUGUGAUGUGAUAGAGUGUUUUGUUGUGGAUGUCAAUGGCACAGAGGCAGCGAAUCACUGAUGACAACAGAGGAUUGAGCAUCA
B12: chr4:142723943:142723944:-_ENSMUSG00000057637_ENSMUST00000105778|mus_hu|FALSE|FALSE (ssRNA)
RNA: GGGAGUUCUACAGUCCGACGAUCUAGGGAUUUACAAGGACUUGGGCUCCUGGUCCCAUCUGCAGGGUUUUCUACAGGUAAAUCGAUGCCAUUAUAUUCAUUGAGAAGAACCUUCUGCAGCAUGCAGGUGGUUGGUUUCCUUUUCAACAGAGGAUUGAGCAUCA
B13: 101923426_101923546_1554_3pUTR_ENSMUSG00000058655_ENSMUST00000169681|mouse|control|control (ssRNA)
RNA: GGGAGUUCUACAGUCCGACGAUCGGUGGAGGGGCUGGCAUUACCUUUAGAGGCUGGUCAGGUUUAGGAGGCUUAGAGGUUGGAGAGUGACAGUCUUCUUCUUUAUUGAGGGUUUCAUUUUCUAGAGACUUCUCACUCUCUCUCCAACAGAGGAUUGAGCAUCA
B14: chr1:196642661:196642662:+_ENSMUSG00000026640_ENSMUST00000027952|mus_hu|FALSE|FALSE (ssRNA)
RNA: GGGAGUUCUACAGUCCGACGAUCACACGCAAGAAUAUCUGUUCUGUUUGGGGGGAGUAUUUCCAUUCUGCCUGCCACCUUCCAUGCCAAGAUGAAGGCCAAAUAAGUCAAAGUGAGGACUUUGAAAUGCAGAAGAUGUUUCCUCAACAGAGGAUUGAGCAUCA
B15: chr5:125867735:125867736:-_ENSMUSG00000008348_ENSMUST00000136312|mus_mus|FALSE|FALSE (ssRNA)
RNA: GGGAGUUCUACAGUCCGACGAUCGGUUUUGCCUGUCAGGGUCUUCACAAAGAUCUGCAUCCCACCUCUGAGGCGAAGGACUAAGUGCAGGGUGGACUCUUUCUGGAUGUUGUAGUCUGACAGGGUGCGGCCAUCUUCCAGCUGCAACAGAGGAUUGAGCAUCA
B16: chr9:64573345:64573346:-_ENSMUSG00000004771_ENSMUST00000172298|mus_hu|motif|central (ssRNA)
RNA: GGGAGUUCUACAGUCCGACGAUCAGAAACAAUGCGGUAAAUCUCUGUUAAAAUUGUCUGAAAAGCAGCUUCUACAUUUGUAGAGUCGGGGGCCGAAGUUUCAAUGAAUGACAAACCAUUCUUUUCUGCAAAAGCUCUUGCUUCCAACAGAGGAUUGAGCAUCA
B17: chr12:73047227:73047228:+_ENSMUSG00000034574_ENSMUST00000085299|mus_hu|FALSE|FALSE (ssRNA)
RNA: GGGAGUUCUACAGUCCGACGAUCUUCAAAUCUUUUGGCAAAUUCUAGUUCAUCUUCAUUUCGGAGCAUUUCAAAAAAGUCUAAAUGCCUAUCUAAUGUUGAAUUUUCGUGUUCCCUUAAUUUAUCUAUUACAGGUUGAAUUCCCAACAGAGGAUUGAGCAUCA
B18: 79237222_79238426_402_CDS_ENSMUSG00000050668_ENSMUST00000170759|mouse|control|control (ssRNA)
RNA: GGGAGUUCUACAGUCCGACGAUCCUUCUGCCUGUUUCUCAGAUUAGCUUGCUGUUGCUUUUCUUCUUUCCGACGGGCUUCUCGGAUCUGCCUCAGCAUCGGCACACCGGGUCUGACAUCUUCUUGAACAUUAAUGAAGGAAUCCAACAGAGGAUUGAGCAUCA
B19: chr2:155479361:155479362:-_ENSMUSG00000038324_ENSMUST00000041059|mus_hu|FALSE|FALSE (ssRNA)
RNA: GGGAGUUCUACAGUCCGACGAUCCCACUCUUCCAACUCCUGAAGGAAGCUGGCUGUGCCCGUUGACUCUGACACCUUUCGAGUCGCCAGUUUGCAAAGCCGCUCAACAAAGCCAGGAAUGCUGAGAAGGGCCGCUUGAUUGAUCAACAGAGGAUUGAGCAUCA
B20: chr19:34954956:34954957:+_ENSG00000126261_ENST00000246548|hu_hu|motif|central (ssRNA)
RNA: GGGAGUUCUACAGUCCGACGAUCGAUCAAUAAAGUAUAGUCCUGGAGGAAGUCAUCUGCUUGAAGCCGGCUGCCAUUUCGGAUUCCAAAUUCUGACAACUUCUUGUGAUUAUUAGCUUCCGUCUCUCCCUCUUCGGAAGAUAUCAACAGAGGAUUGAGCAUCA
B21: chr4:17845017:17845018:+_ENSG00000109805_ENST00000514176|hu_mus|hu_hu_hu_mus_False|38_108 (ssRNA)
RNA: GGGAGUUCUACAGUCCGACGAUCGCUUCCUAACUUAGUAUCUUCAUUAAGGAACUCUGCAAGGUUAAGUUUACUUUUCUGUAGCGCAGCUGUUUUGCUCGUCUUGGGUAAUCUCAUCUUCAUUUCUGAUGGUGGUUCAUGAUCCAACAGAGGAUUGAGCAUCA
B22: chr9:96327448:96327449:+_ENSG00000048828_ENST00000277165|hu_mus|motif|central (ssRNA)
RNA: GGGAGUUCUACAGUCCGACGAUCUAGUCACGAGGUUUCAGAACACAUUGUGUUGACUUUGAAAGGUCAUUUGCAUCUUCGGUGAUUUCAACGUAAUCUCCAUUGAACUUGCUUGUAAAGGAUGUAUGAUGUACUGUGUAUUCACAACAGAGGAUUGAGCAUCA

biological target: T1, UNK ZnF1-3; test: nsRBNS (natural sequence RNA bind-n-seq); RBNS binding buffer (assumed for nsRBNS): 25 mM Tris pH 7.5, 150 mM KCl, 3 mM MgCl2, 0.01% Triton X-100, 500 ug/ml BSA, 20 U/ml SUPERase-In, 4 C; UNK is unkempt and MSI1 is Musashi-1; names of the RNAs are library labels; protein concentration not given here; high values mean tight binding

Binder | binding signal [enrichment R]
B1 | 0.625
B2 | 0.711
B3 | 1.36
B4 | 0.658
B5 | 0.604
B6 | 1.34
B7 | 1.75
B8 | 0.617
B9 | 1.7
B10 | 0.392
B11 | 1.85
B12 | 0.538
B13 | 1.31
B14 | 1.14
B15 | 0.824
B16 | 1.24
B17 | 0.588
B18 | 0.58
B19 | 0.817
B20 | 0.861
B21 | 0.499
B22 | 0.889

— publication PMC12136788
